Data as given in the supplement of paper PMC8728848.
The other results are listed elsewhere or left out.

Key:
Test in all cases: glycan array binding signal (z-score within array); higher = stronger binding
Conditions in all cases: glycan notation: IUPAC condensed, linker removed
[1] = target: Neu5Ac(a2-6)Gal(b1-4)GlcNAc(b1-2)Man(a1-3)[Gal(b1-4)GlcNAc(b1-2)Man(a1-6)]Man(b1-4)GlcNAc(b1-4)GlcNAc
Procedure, shortened: (§1)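 The binding signal is a Z-score computed within each array and averaged over linkers. Arrays of the same protein sequence at different concentrations or buffers were also averaged together. Data originate from 3228 arrays in the Consortium for Functional Glycomics database, kept only where the protein sequence was available.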

[2] = target: Neu5Ac(a2-6)Gal(b1-4)GlcNAc(b1-2)Man(a1-3)[GlcNAc(b1-2)Man(a1-6)]Man(b1-4)GlcNAc(b1-4)GlcNAc
Procedure, shortened: as §1

[3] = target: Neu5Ac(a2-6)Gal(b1-4)GlcNAc(b1-2)Man(a1-3)[GlcNAc(b1-4)][Neu5Ac(a2-6)Gal(b1-4)GlcNAc(b1-2)Man(a1-6)]Man(b1-4)GlcNAc(b1-4)GlcNAc
Procedure, shortened: as §1

[4] = target: Neu5Ac(a2-6)Gal(b1-4)GlcNAc(b1-2)Man(a1-3)[Man(a1-6)]Man(b1-4)GlcNAc(b1-4)GlcNAc
Procedure, shortened: as §1

[5] = target: Neu5Ac(a2-6)Gal(b1-4)GlcNAc(b1-2)Man(a1-3)[Neu5Ac(a2-3)Gal(b1-4)GlcNAc(b1-2)Man(a1-6)]Man(b1-4)GlcNAc(b1-4)GlcNAc
Procedure, shortened: as §1

[6] = target: Neu5Ac(a2-6)Gal(b1-4)GlcNAc(b1-2)Man(a1-3)[Neu5Ac(a2-6)Gal(b1-4)GlcNAc(b1-2)Man(a1-6)]Man(b1-4)GlcNAc(b1-4)GlcNAc
Procedure, shortened: as §1

[7] = target: Neu5Ac(a2-6)Gal(b1-4)GlcNAc(b1-2)Man(a1-3)[Neu5Ac(a2-6)Gal(b1-4)GlcNAc(b1-2)Man(a1-6)]Man(b1-4)GlcNAc(b1-4)[Fuc(a1-6)]GlcNAc
Procedure, shortened: as §1

[8] = target: Neu5Ac(a2-6)Gal(b1-4)GlcNAc(b1-2)Man(a1-6)Man(b1-4)GlcNAc(b1-4)GlcNAc
Procedure, shortened: as §1

[9] = target: Neu5Ac(a2-6)Gal(b1-4)GlcNAc(b1-2)Man(a1-6)[Gal(b1-4)GlcNAc(b1-2)Man(a1-3)]Man(b1-4)GlcNAc(b1-4)GlcNAc
Procedure, shortened: as §1

[10] = target: Neu5Ac(a2-6)Gal(b1-4)GlcNAc(b1-2)Man(a1-6)[GlcNAc(b1-2)Man(a1-3)]Man(b1-4)GlcNAc(b1-4)GlcNAc
Procedure, shortened: as §1

[11] = target: Neu5Ac(a2-6)Gal(b1-4)GlcNAc(b1-2)Man(a1-6)[Man(a1-3)]Man(b1-4)GlcNAc(b1-4)GlcNAc
Procedure, shortened: as §1

[12] = target: Neu5Ac(a2-6)Gal(b1-4)GlcNAc(b1-2)[Neu5Ac(a2-6)Gal(b1-4)GlcNAc(b1-4)]Man(a1-3)[GlcNAc(b1-4)][Neu5Ac(a2-6)Gal(b1-4)GlcNAc(b1-2)[Neu5Ac(a2-6)Gal(b1-4)GlcNAc(b1-6)]Man(a1-6)]Man(b1-4)GlcNAc(b1-4)GlcNAc
Procedure, shortened: as §1

[13] = target: Neu5Ac(a2-6)Gal(b1-4)GlcNAc(b1-2)[Neu5Ac(a2-6)Gal(b1-4)GlcNAc(b1-4)]Man(a1-3)[GlcNAc(b1-4)][Neu5Ac(a2-6)Gal(b1-4)GlcNAc(b1-4)Man(a1-6)]Man(b1-4)GlcNAc(b1-4)GlcNAc
Procedure, shortened: as §1

[14] = target: Neu5Ac(a2-6)Gal(b1-4)GlcNAc(b1-2)[Neu5Ac(a2-6)Gal(b1-4)GlcNAc(b1-6)]Man(a1-6)[Neu5Ac(a2-6)Gal(b1-4)GlcNAc(b1-2)Man(a1-3)][GlcNAc(b1-4)]Man(b1-4)GlcNAc(b1-4)GlcNAc
Procedure, shortened: as §1

[15] = target: Neu5Ac(a2-6)Gal(b1-4)GlcNAc(b1-3)Gal(b1-3)GlcNAc
Procedure, shortened: as §1

[16] = target: Neu5Ac(a2-6)Gal(b1-4)GlcNAc(b1-3)Gal(b1-4)GlcNAc
Procedure, shortened: as §1

[17] = target: Neu5Ac(a2-6)Gal(b1-4)GlcNAc(b1-3)Gal(b1-4)GlcNAc(b1-2)Man(a1-3)[Neu5Ac(a2-6)Gal(b1-4)GlcNAc(b1-3)Gal(b1-4)GlcNAc(b1-2)Man(a1-6)]GalNAc
Procedure, shortened: as §1

[18] = target: Neu5Ac(a2-6)Gal(b1-4)GlcNAc(b1-3)Gal(b1-4)GlcNAc(b1-3)Gal(b1-4)GlcNAc
Procedure, shortened: as §1

[19] = target: Neu5Ac(a2-6)Gal(b1-4)GlcNAc(b1-3)Gal(b1-4)GlcNAc(b1-3)Gal(b1-4)GlcNAc(b1-2)Man(a1-3)[Neu5Ac(a2-6)Gal(b1-4)GlcNAc(b1-3)Gal(b1-4)GlcNAc(b1-3)Gal(b1-4)GlcNAc(b1-2)Man(a1-6)]GalNAc
Procedure, shortened: as §1

[20] = target: Neu5Ac(a2-6)Gal(b1-4)GlcNAc(b1-3)Gal(b1-4)GlcNAc(b1-3)GalNAc
Procedure, shortened: as §1

[21] = target: Neu5Ac(a2-6)Gal(b1-4)GlcNAc(b1-3)Gal(b1-4)GlcNAc(b1-3)[Neu5Ac(a2-6)Gal(b1-4)GlcNAc(b1-3)Gal(b1-4)GlcNAc(b1-6)]GalNAc
Procedure, shortened: as §1

[22] = target: Neu5Ac(a2-6)Gal(b1-4)GlcNAc(b1-3)Gal(b1-4)GlcNAc(b1-6)[Gal(b1-3)]GalNAc
Procedure, shortened: as §1

[23] = target: Neu5Ac(a2-6)Gal(b1-4)GlcNAc(b1-3)Gal(b1-4)[Fuc(a1-3)]GlcNAc(b1-3)Gal(b1-4)[Fuc(a1-3)]GlcNAc
Procedure, shortened: as §1

[24] = target: Neu5Ac(a2-6)Gal(b1-4)GlcNAc(b1-3)GalNAc
Procedure, shortened: as §1

[25] = target: Neu5Ac(a2-6)Gal(b1-4)GlcNAc(b1-3)[Neu5Ac(a2-6)Gal(b1-4)GlcNAc(b1-6)]GalNAc
Procedure, shortened: as §1

[26] = target: Neu5Ac(a2-6)Gal(b1-4)GlcNAc(b1-6)GalNAc
Procedure, shortened: as §1

[27] = target: Neu5Ac(a2-6)Gal(b1-4)GlcNAc(b1-6)[Gal(b1-3)GlcNAc(b1-3)]Gal(b1-4)Glc
Procedure, shortened: as §1

[28] = target: Neu5Ac(a2-6)Gal(b1-4)GlcNAc(b1-6)[Gal(b1-3)]GalNAc
Procedure, shortened: as §1

[29] = target: Neu5Ac(a2-6)Gal(b1-4)GlcNAc6S
Procedure, shortened: as §1

[30] = target: Neu5Ac(a2-6)GalNAc
Procedure, shortened: as §1

[31] = target: Neu5Ac(a2-6)GalNAc(b1-4)GlcNAc
Procedure, shortened: as §1

[32] = target: Neu5Ac(a2-6)GalNAc(b1-4)GlcNAc6S
Procedure, shortened: as §1

B1: DrGal3 (Danio rerio) (protein)
chain: MDLSDALDAPPQQNNQQAGGPVWPGQPANPVWPGQPANPTWPGQPNQPAWPGQPNQQWPGQPGQPTAPGWPGPAPQTGPYGAPGQAPQVLTVPLDFPLQNGAYNKMLITINGEVKPNAKQFTVNLRRGNDIAFHINPRFSEGGKPVIVRNSMIGNNWGREERELPSFPFVPGKPFEMKILITDTEYKVAVNKSHLLEFKHRVFELNQITGLSIYNDVTLSTVNVETLQ
For B1, the “glycan array binding signal (z-score)” value [1] was -0.222, the “glycan array binding signal (z-score)” value [2] was -0.025 and the “glycan array binding signal (z-score)” value [3] was -0.3. For the same binder, the “glycan array binding signal (z-score)” value [4] was -0.226, the “glycan array binding signal (z-score)” value [5] was -0.257 and the “glycan array binding signal (z-score)” value [6] was -0.217. The “glycan array binding signal (z-score)” value [7] was -0.117, the “glycan array binding signal (z-score)” value [8] was -0.237 and the “glycan array binding signal (z-score)” value [9] was -0.241. For the same binder, the “glycan array binding signal (z-score)” value [10] was -0.251, the “glycan array binding signal (z-score)” value [11] was -0.232 and the “glycan array binding signal (z-score)” value [12] was -0.226. For the same binder, the “glycan array binding signal (z-score)” value [13] was -0.234, the “glycan array binding signal (z-score)” value [14] was -0.246 and the “glycan array binding signal (z-score)” value [15] was -0.125. The “glycan array binding signal (z-score)” value [16] was -0.25, the “glycan array binding signal (z-score)” value [17] was 0.608 and the “glycan array binding signal (z-score)” value [18] was 0.971. The “glycan array binding signal (z-score)” value [19] was 1.15, the “glycan array binding signal (z-score)” value [20] was -0.209 and the “glycan array binding signal (z-score)” value [21] was -0.107. The “glycan array binding signal (z-score)” value [22] was -0.184, the “glycan array binding signal (z-score)” value [23] was -0.257 and the “glycan array binding signal (z-score)” value [24] was -0.19. The “glycan array binding signal (z-score)” value [25] was -0.219, the “glycan array binding signal (z-score)” value [26] was -0.143 and the “glycan array binding signal (z-score)” value [27] was -0.272. For the same binder, the “glycan array binding signal (z-score)” value [28] was -0.249, the “glycan array binding signal (z-score)” value [29] was -0.273 and the “glycan array binding signal (z-score)” value [30] was -0.26. For the same binder, the “glycan array binding signal (z-score)” value [31] was -0.264 and the “glycan array binding signal (z-score)” value [32] was -0.284.
